# Experimental data: PubChem BioAssay AID1768 (National Center for Advancing Translational Sciences (NCATS), 2009)
# Several values for one entry are separate records, joined by “and”; a condition that tells them apart may be missing. Equal entries are not always repeated. About 620 (0.23%) of roughly 270,000 compounds were called active. The inconclusive results got no clear call from the source; some entries with a clear call stand among them for comparison. The call rests on the fitted dose curve; in most records, active means well fitted inhibition curve with a large enough effect in the polarisation, with a control signal flat (not every such curve was filed as active); inconclusive means small, poorly fitted or top-dose-only effect, or effect the other way, or a change in a side signal; inactive means no such curve, though single readings can be large or run the other way; the % refers to the polarisation. A potency beside an inconclusive call is a rough fit, not a confirmed value. A note “side channel” means that the fit belongs to a control or component signal, not to the main read-out.
# Molecular target: Menin (Homo sapiens) (UniProt O00255)
# Test: qHTS Assay for Inhibitors Targeting the Menin-MLL Interaction in MLL Related Leukemias: Competition With Texas Red Labeled MLL-derived Mutant Peptide; on FP activity change, negative = inhibition: % of control where 0% means no effect
# Details: fluorescence polarization; series mostly up to 61.6 µM; FP activity change, negative = inhibition: at the top concentration
# Potency means the concentration at half of the fitted maximal effect; tags describe the fitted curve by direction and shape or compound fluorescence and quenching.
# Chain of UniProt O00255 (O00255 whole entry, looked up): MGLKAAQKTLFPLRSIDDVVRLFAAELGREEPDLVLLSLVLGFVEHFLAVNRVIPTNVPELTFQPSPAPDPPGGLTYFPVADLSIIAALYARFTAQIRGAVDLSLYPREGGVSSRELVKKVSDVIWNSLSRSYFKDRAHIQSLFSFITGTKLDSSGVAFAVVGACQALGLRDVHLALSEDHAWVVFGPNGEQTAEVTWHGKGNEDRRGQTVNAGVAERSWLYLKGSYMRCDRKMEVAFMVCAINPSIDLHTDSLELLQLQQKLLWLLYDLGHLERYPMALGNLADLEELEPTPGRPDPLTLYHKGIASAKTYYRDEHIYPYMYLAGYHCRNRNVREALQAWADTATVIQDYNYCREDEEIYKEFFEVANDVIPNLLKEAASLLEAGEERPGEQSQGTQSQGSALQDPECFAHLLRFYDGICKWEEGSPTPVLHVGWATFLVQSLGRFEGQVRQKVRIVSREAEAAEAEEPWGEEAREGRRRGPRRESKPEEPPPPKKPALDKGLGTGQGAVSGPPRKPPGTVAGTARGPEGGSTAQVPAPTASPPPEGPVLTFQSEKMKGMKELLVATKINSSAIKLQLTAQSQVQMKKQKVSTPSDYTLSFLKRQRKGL
SMILES,Potency,"FP activity change, negative = inhibition"
COc1ccc(Oc2cc(NC(=O)c3nn(C)cc3[N+](=O)[O-])cc([N+](=O)[O-])c2)cc1,"inconclusive: 12.6 µM [quencher, side channel, partial curve]",
COc1ccccc1N1C(=O)NC(=O)/C(=C/c2ccc3c4c(cccc24)CC3)C1=O,"inconclusive: 17.8 µM [quencher, side channel, partial curve]",
CC(=O)C1(c2ccccc2)CCN(C(=O)C2CCC(=O)N(CCc3cccc(F)c3)C2)CC1 (stereo not given),"inconclusive: 14.1 µM [fluorescent, side channel, partial curve]",
COc1ccc(-n2c(O)c(/C=C3\C=Nc4ccccc43)c(=O)[nH]c2=O)cc1,"inconclusive: 39.8 µM [inhibitor, single point]",
N#CCCn1cc(C(=O)Nc2ccccc2Cl)c(-c2ccc([N+](=O)[O-])cc2)n1,"inconclusive: 39.8 µM [quencher, side channel, single point]",
CC(=O)NC(Cc1ccc(N(CCCl)CCCl)cc1)C(=O)NCC(=O)NCC(=O)O (stereo not given),"inconclusive: 39.8 µM [inhibitor, single point]",
CCCCCCCCCCCCCC(=O)O[C@@H]1[C@@H](C)[C@@]2(O)[C@@H](C=C(CO)C[C@@]3(O)C(=O)C(C)=C[C@@H]23)C2C(C)(C)[C@@]21OC(C)=O (stereo not given in full),"inconclusive: 5.01 µM [fluorescent, side channel, partial curve]",
CC(C)(C)c1cc([N+](=O)[O-])cc(C(C)(C)C)c1O,"inconclusive: 31.6 µM [quencher, side channel, single point]",
CCOc1ccc(-c2cc(C)[n+](CCc3ccc(OC)c(OC)c3)c(-c3ccc(OCC)cc3)c2)cc1,"inconclusive: 3.55 µM [fluorescent, side channel, full curve]",
C=CCn1c(O)c(/C=C/C=Nc2ccccc2)c(=O)[nH]c1=O,"inconclusive: 20 µM [inhibitor, single point]",
COc1cc(/C=C2/C(=O)N(c3ccccc3)N=C2C)ccc1OS(=O)(=O)c1ccccc1,"inconclusive: 12.6 µM [quencher, side channel, partial curve]",
CCCCCCCSc1cc(OC)c(CCN(C)C)cc1OC,active: 7.08 µM,
COc1ccc(C[C@H]2NC[C@H](O)[C@@H]2OC(C)=O)cc1,"inconclusive: 39.8 µM [fluorescent, single point]",
CCCCCCCCCCCCC/C=C/[C@@H](O)[C@@H](N)COP(=O)([O-])OCC[N+](C)(C)C,"inconclusive: 39.8 µM [inhibitor, partial curve, poor fit]",
O=P1(NCCCl)OCCCN1CCCl (stereo not given),"inconclusive: 2.82 µM [quencher, side channel, full curve]",
CCN(CC)c1ccc(CN(C)CCc2ccc(OC)c(OC)c2)cc1,"inconclusive: 39.8 µM [inhibitor, single point]",
O=C1NC(=O)C2(Cc3ccccc3N3CCCC32)C(=O)N1c1ccc(Cl)cc1 (stereo not given),"inconclusive: 8.91 µM [quencher, side channel, full curve]",
CCCCn1c(=O)c(C(=O)Nc2ccccc2C)c(O)c2ccccc21,"inconclusive: 10 µM [quencher, side channel, partial curve]",

SMILES,Potency,"FP activity change, negative = inhibition"
COc1ccc(F)cc1C(=O)C1CCCN(Cc2ccc(O)cc2)C1 (stereo not given),,inactive: -5.72%
CCC(=O)Oc1ccc(C(=O)Nc2cccc(C(=O)c3ccccc3)c2)cc1,"inconclusive: 14.1 µM [quencher, side channel, partial curve]",
CN(C)C1C(=O)C(C(N)=O)C(=O)C2(O)C(=O)C3C(=O)c4c(O)cccc4C(C)(O)C3C(O)C12 (stereo not given),"inconclusive: 15.8 µM [quencher, side channel, partial curve]",
Cc1c2ccncc2c(C)c2c1[nH]c1ccccc12,"inconclusive: 20 µM [inhibitor, single point] and inconclusive: 15.8 µM [quencher, side channel, partial curve]",
CC/C(=N\NC(=O)c1ccccc1)c1c(O)n(C2CCCCC2)c(=O)[nH]c1=O,"inconclusive: 12.6 µM [quencher, side channel, partial curve]",
COc1ccc(NC(=O)CCn2cc(C)c3ccccc32)cc1,"inconclusive: 35.5 µM [quencher, side channel, partial curve]",
O=C(Cc1ccccc1)N1CCN(C/C=C/c2ccccc2)CC1,"inconclusive: 7.94 µM [fluorescent, side channel, partial curve]",
O=C(Nc1ccc(Cl)cc1)Nc1ccc(Cl)c(Cl)c1,"inconclusive: 3.16 µM [quencher, side channel, full curve]",
O=c1c2cc([N+](=O)[O-])ccc2nc(CN2CCOCC2)n1-c1ccccc1F,"inconclusive: 39.8 µM [quencher, side channel, single point]",
O=C(N/N=C/c1c(O)n(C2CCCCC2)c(=S)[nH]c1=O)c1ccccc1O,"inconclusive: 3.55 µM [quencher, side channel, full curve]",
CSC(=S)NCc1c[nH]c2ccccc12,"inconclusive: 35.5 µM [quencher, side channel, single point] and inconclusive: 10 µM [quencher, side channel, partial curve]",
CC1(C)CC(CCNCc2ccc3c(c2)OCO3)(Cc2ccccc2)CCO1 (stereo not given),"inconclusive: 15.8 µM [fluorescent, side channel, partial curve]",
CC(=O)Oc1ccccc1C(=O)Nc1ncc([N+](=O)[O-])s1,"inconclusive: 28.2 µM [quencher, side channel, partial curve] and inconclusive: 14.1 µM [quencher, side channel, partial curve]",
CC(=O)Nc1ccc(C(=O)OCC(=O)Nc2ccc(Cl)cc2C(=O)c2ccccc2)cc1,"inconclusive: 25.1 µM [quencher, side channel, partial curve]",
COC(=O)c1ccccc1N=Cc1c(O)[nH]c(=O)[nH]c1=O,"inconclusive: 8.91 µM [inhibitor, partial curve]",
N#CC[N+]1(CCCNP2(=O)C=C(c3ccccc3)OC(c3ccccc3)=C2)CCOCC1,"inconclusive: 35.5 µM [fluorescent, side channel, single point]",
CCCCn1c(=O)c(C(=O)Nc2ccccc2S(N)(=O)=O)c(O)c2ccccc21,"inconclusive: 35.5 µM [inhibitor, single point]",
